Screen size: about 230,000 compounds; about 3,600 (1.6%) were called active. The inconclusive results got no clear call from the source; some entries with a clear call stand among them for comparison. Calls follow the shape of the dose curve; as a rule, active = well fitted inhibition curve with a large enough effect (not every such curve was filed as active); inconclusive = small, poorly fitted or top-dose-only effect, or another doubt; inactive = no such curve, though single readings can be large or run the other way. A potency beside an inconclusive call is a rough fit, not a confirmed value.
Biological target: Lysine-specific demethylase 4E (Homo sapiens) (UniProt B2RXH2)
Assay: qHTS Assay for Inhibitors of Human Jumonji Domain Containing 2E (JMJD2E)
Settings: JMJD2E catalytic domain, FDH-coupled NADH fluorescence (FDH is formaldehyde dehydrogenase); series mostly up to 57.1 µM
Also: nearly all actives have a fitted effect of over 50% in size.
Potency is read from the fitted curve at half-maximal effect; tags tell the direction and shape of the fitted curve.

Chain of UniProt B2RXH2 (B2RXH2 whole entry, looked up, the tested form may be a part): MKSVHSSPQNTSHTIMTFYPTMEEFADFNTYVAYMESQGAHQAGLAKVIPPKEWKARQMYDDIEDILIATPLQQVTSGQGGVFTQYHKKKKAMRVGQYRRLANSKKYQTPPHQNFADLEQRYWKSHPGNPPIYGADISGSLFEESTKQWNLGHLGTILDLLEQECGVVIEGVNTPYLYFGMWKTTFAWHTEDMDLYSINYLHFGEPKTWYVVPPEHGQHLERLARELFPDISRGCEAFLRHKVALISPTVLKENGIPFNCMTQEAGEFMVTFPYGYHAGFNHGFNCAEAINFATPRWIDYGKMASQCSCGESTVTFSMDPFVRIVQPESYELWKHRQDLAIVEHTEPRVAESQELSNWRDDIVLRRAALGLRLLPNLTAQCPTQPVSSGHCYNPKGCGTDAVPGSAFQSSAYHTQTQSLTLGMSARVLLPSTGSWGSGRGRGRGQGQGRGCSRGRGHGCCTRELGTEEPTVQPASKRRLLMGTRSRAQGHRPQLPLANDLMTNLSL

Compound | Potency
NC(=O)c1cccc2ccccc12 | inactive
C=CCOc1ccc(C2OC34CCCCC3C(C#N)(C#N)C2(C#N)C(=N)O4)cc1 (configuration not stated) | inconclusive: 28.2 µM [inhibitor, partial curve]
O=S(=O)(c1ccc(Cl)c(C(F)(F)F)c1)N1CCN(CC(O)COCC2CCCO2)CC1 (configuration not stated) | inconclusive: 39.8 µM [inhibitor, single point]
Nc1ccc[n+](Cc2ccccn2)c1 | inconclusive: 31.6 µM [inhibitor, partial curve]
CCC(C)n1nccc1NC(=O)C(C)OC(=O)c1cc2ccccc2[nH]1 (configuration not stated) | inconclusive: 31.6 µM [inhibitor, partial curve]
Cc1ccc(CNC(=O)c2cc3c(C)nc4ccccc4c3o2)cc1 | inactive
COCCCNC(=S)NCCCNc1nc2cc3c(cc2cc1C#N)OCO3 | inconclusive: 28.2 µM [inhibitor, partial curve]
c1coc(-c2nnc(SCc3nc4ccccc4[nH]3)o2)c1 | inconclusive: 35.5 µM [inhibitor, single point]
COC(=O)c1ccccc1NC(=O)CCNC(=O)Cn1cnc2ccccc2c1=O | inconclusive: 28.2 µM [inhibitor, single point]
COc1ccccc1-n1c(SCC(=O)NC2CCCC2)nc2cccnc21 | inactive
COc1ccc(N2CCN(CC(=O)Nc3cc(C)on3)CC2)cc1 | active: 25.1 µM
O=C(COC(=O)c1cc(=O)[nH]c2ccccc12)NCc1cccs1 | inconclusive: 35.5 µM [inhibitor, single point]
Cc1ccc(-n2cccc2/C=C2\C(=N)N3N=C(C(C)C)SC3=NC2=O)cc1 | inactive
O=C(c1ccco1)N1CCN(C(=O)C2(S(=O)(=O)c3ccc(Cl)cc3)CC2)CC1 | inactive
COc1cc(/C=C/C(=O)N2CCOCC2)ccc1OCc1ccccc1 | inconclusive: 31.6 µM [inhibitor, partial curve]
COc1cccc(C(=O)NC(=S)Nc2ccc(N3CCCC3)cc2)c1 | inactive
Cc1ccc(C(=O)N/N=C/C2=Cc3ccccc3OC2C)cc1 (configuration not stated) | inconclusive: 35.5 µM [inhibitor, partial curve]
CCOc1ccc(NC(=O)c2cccnc2SC)cc1 | inactive
COc1ccc(/C=N/c2sc3c(c2C#N)CCN(Cc2ccccc2)C3)c(O)c1 | inconclusive: 25.1 µM [inhibitor, single point]
Cc1nc(C)c(-c2csc(Nc3cccc(O)c3)n2)s1 | inconclusive: 20 µM [inhibitor, single point]
CCOC(=O)c1sc(=S)n(C)c1N | inactive
Nc1ncc(-n2cncn2)c(-c2ccc(Cl)cc2)n1 | inconclusive: 28.2 µM [inhibitor, single point]
CC(=O)Nc1ccc2oc(-c3ccccc3Br)nc2c1 | inconclusive: 28.2 µM [inhibitor, partial curve]
NS(=O)(=O)c1ccc(NNC(=O)c2ccc(F)cc2F)cc1 | inactive

Compound | Potency
O=C(O)COc1c(-c2ccccc2)oc2ccccc2c1=O | inconclusive: 35.5 µM [inhibitor, single point]
CNC(=O)c1ccccc1-c1cn(C)c2ccccc2c1=O | inconclusive: 25.1 µM [inhibitor, partial curve]
Cc1noc(/C=C/N(C)C)c1S(=O)(=O)N(C)CC(=O)N1CCc2ccccc21 | inactive
CCOC(=O)N1CCN(C(=O)CSc2ccc3nnc(-c4ccncc4)n3n2)CC1 | inconclusive: 14.1 µM [inhibitor, partial curve]
O=C(Nc1ccc(Cn2nnc3ccccc32)cc1)c1ccco1 | inconclusive: 35.5 µM [inhibitor, single point]
O=C(Nc1ccccc1O)c1c(O)c2c([nH]c1=O)CCCC2 | inconclusive: 5.01 µM [inhibitor, partial curve, poor fit]
Cc1cccc(C)c1NC(=S)N/N=C1\CC2CC=CC12 (configuration not stated) | inactive
COc1ccccc1-c1ccc(=O)n(CC(=O)NCC2CCCO2)n1 (configuration not stated) | inactive
CCOC(=O)C1C(=O)C(C(C)=O)C(=O)CC1CC(C)SCC (configuration not stated) | inactive
Cc1cccc(N(CC(=O)NC2CCCC2)C(=O)c2cc3cc4cccc(C)c4nc3s2)c1C | inconclusive: 35.5 µM [inhibitor, single point]
Cc1c(O)ccc2c3c(c(=O)oc12)CCC(C)C3 (configuration not stated) | inconclusive: 31.6 µM [inhibitor, partial curve]
CCCNc1nc(C)nc2c1cnn2CCc1ccccc1 | inactive
CCN1CCN(CC(=O)N2N=C(c3cccs3)CC2c2ccc(F)cc2)C(=O)C1=O (configuration not stated) | inconclusive: 28.2 µM [inhibitor, single point]
O=C(CC1SC(=O)NC1=O)Oc1ccc(/C=N/NC(=O)c2ccccc2O)cc1 (configuration not stated) | inconclusive: 31.6 µM [inhibitor, single point]
COc1ccc(OC)c2c(=S)c3ccccc3[nH]c12 | inconclusive: 2.51 µM [inhibitor, full curve]
Cc1cc(-c2n[nH]c(=S)n2Cc2ccccc2)cs1 | inconclusive: 20 µM [inhibitor, single point]
Cn1c(=O)c2c(O)c([N+](=O)[O-])c(=O)n(C)c2n(C)c1=O | inconclusive: 39.8 µM [inhibitor, single point]
COc1ccc2[nH]c(=O)c(CN(CCO)C(=O)c3cccs3)cc2c1 | inconclusive: 25.1 µM [inhibitor, partial curve]
COc1ccc2c(c1)[nH]c1c(N3CCN(Cc4ccc5c(c4)OCO5)CC3)ncnc12 | inconclusive: 25.1 µM [inhibitor, partial curve]
Oc1cccnc1CCc1ccccc1 | inconclusive: 25.1 µM [inhibitor, partial curve]
O=C(/C=C/c1cccc(F)c1)N1CCc2ccccc21 | inconclusive: 35.5 µM [inhibitor, single point]
COc1cc(C(=O)OCC(=O)NC2CCS(=O)(=O)C2)ccc1OCc1c(C)noc1C (configuration not stated) | inconclusive: 35.5 µM [inhibitor, single point]
O=C(c1cncs1)N1CCCC(CNS(=O)(=O)c2cccs2)C1 (configuration not stated) | inactive

Source: PubChem BioAssay AID2147 (National Center for Advancing Translational Sciences (NCATS), 2009)
